# The supplement of paper PMC12217912
# The other results are listed elsewhere or left out. The full chains were built here from the parent and the listed change. Inactive controls read about 0.05.
# B1: TEV protease; numbered along this chain (parent)
# chain: MGESLFKGPRDYNPISSSICHLTNESDGHTTSLYGIGFGPFIITNKHLFRRNNGTLVVQSLHGVFKVKDTTTLQQHLVDGRDMIIIRMPKDFPPFPQKLKFREPQREERICLVTTNFQTKSMSSMVSDTSCTFPSGDGIFWKHWIQTKDGQCGSPLVSTRDGFIVGIHSASNFTNTNNYFTSVPKNFMELLTNQEAQQWVSGWRLNADSVLWGGHKVFMVKPEEPFQPVKEATQL
# Variants of: B1
# Assay: raw area under fraction-flipped curve 0-4 h after induction (AUC4h, not background-subtracted), DNA-recorder readout of cleavage of the substrate (dimensionless); higher = more cleavage of the substrate by the protease variant
# Conditions: temperature: 34 °C; time window: 0-4 h after rhamnose induction
# 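Further: Bxb1 expression induced with 0.2% (w/v) L-rhamnose at OD600 near 0.5, cultures sampled hourly, flipped fraction per protease–substrate barcode pair counted by paired-end Illumina sequencing.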
Variant,area with substrate ENDYFQS,area with substrate ENEYFQS,area with substrate ENGYFQS,area with substrate ENKYFQS,area with substrate ENNYFQS,area with substrate ENPYFQS,area with substrate ENQYFQS,area with substrate ENRYFQS,area with substrate ENSYFQS,area with substrate ENTYFQS
MGESTFKGPRDYNPISSSICHLTNESDGHTTSLYGIGFGPFIITNKHLFRRNNGTLVVQSLHGVFKVKDTTTLQQHLVDGRDMIIIRMPKDFPPFPQKLKFREPQREERICLVTTNFQTKSMSSMVSDTSCTFPSGDGIFWKHWIQTKDGQCGSPLVSTRDGFIVGIHSASNFTNTNNYFTSVPKNFMELLTNQEAQQWVSGWRLNADSVLWGGHKVFMVKPEEPFQPVKEATQL [L5T],0.0583,0.0816,0.0702,0.0554,0.0724,0.0799,0.0574,0.0521,0.0564,0.0659
MGESLFKGPRDYNPISSSICHLTNESDGGTTSLYGIGFGPFIITNKHLFRRNNGTLVVQSLHGVFKVKDTTTLQQHLVDGRDMIIIRMPKDFPPFPQKLKFREPQREERICLVTTNFQTKSMSSMVSDTSCTFPSGDGIFWKHWIQTKDGQCGSPLVSTRDGFIVGIHSASNFTNTNNYFTSVPKNFMELLTNQEAQQWVSGWRLNADSVLWGGHKVFMVKPEEPFQPVKEATQL [H29G],0.0846,,0.0312,,,,,0.0659,0.0745,
MGESLFKGPRDYNPISSSICHLTNESDGHTTSLYAIGFGPFIITNKHLFRRNNGTLVVQSLHGVFKVKDTTTLQQHLVDGRDMIIIRMPKDFPPFPQKLKFREPQREERICLVTTNFQTKSMSSMVSDTSCTFPSGDGIFWKHWIQTKDGQCGSPLVSTRDGFIVGIHSASNFTNTNNYFTSVPKNFMELLTNQEAQQWVSGWRLNADSVLWGGHKVFMVKPEEPFQPVKEATQL [G35A],0.0516,0.0487,0.038,,,0.0573,0.0633,,,
MGESLFKGPRDYNPISSSICHLTNESDGHTTSLYIIGFGPFIITNKHLFRRNNGTLVVQSLHGVFKVKDTTTLQQHLVDGRDMIIIRMPKDFPPFPQKLKFREPQREERICLVTTNFQTKSMSSMVSDTSCTFPSGDGIFWKHWIQTKDGQCGSPLVSTRDGFIVGIHSASNFTNTNNYFTSVPKNFMELLTNQEAQQWVSGWRLNADSVLWGGHKVFMVKPEEPFQPVKEATQL [G35I],0.0624,,,,,,0.0492,,,
MGESLFKGPRDYNPISSSICHLTNESDGHTTSLYGIGFGPFIITNKHLFRRNNGTLVDQSLHGVFKVKDTTTLQQHLVDGRDMIIIRMPKDFPPFPQKLKFREPQREERICLVTTNFQTKSMSSMVSDTSCTFPSGDGIFWKHWIQTKDGQCGSPLVSTRDGFIVGIHSASNFTNTNNYFTSVPKNFMELLTNQEAQQWVSGWRLNADSVLWGGHKVFMVKPEEPFQPVKEATQL [V58D],0.0495,,,,0.0215,0.034,,,0.0564,
MGESLFKGPRDYNPISSSICHLTNESDGHTTSLYGIGFGPFIITNKHLFRRNNGTLVMQSLHGVFKVKDTTTLQQHLVDGRDMIIIRMPKDFPPFPQKLKFREPQREERICLVTTNFQTKSMSSMVSDTSCTFPSGDGIFWKHWIQTKDGQCGSPLVSTRDGFIVGIHSASNFTNTNNYFTSVPKNFMELLTNQEAQQWVSGWRLNADSVLWGGHKVFMVKPEEPFQPVKEATQL [V58M],0.0521,0.0812,,,,,0.0553,0.0484,,0.0618
MGESLFKGPRDYNPISSSICHLTNESDGHTTSLYGIGFGPFIITNKHLFRRNNGTLVSQSLHGVFKVKDTTTLQQHLVDGRDMIIIRMPKDFPPFPQKLKFREPQREERICLVTTNFQTKSMSSMVSDTSCTFPSGDGIFWKHWIQTKDGQCGSPLVSTRDGFIVGIHSASNFTNTNNYFTSVPKNFMELLTNQEAQQWVSGWRLNADSVLWGGHKVFMVKPEEPFQPVKEATQL [V58S],0.0404,,0.0321,,0.0642,,0.0531,,0.0509,
MGESLFKGPRDYNPISSSICHLTNESDGHTTSLYGIGFGPFIITNKHLFRRNNGTLVVQGLHGVFKVKDTTTLQQHLVDGRDMIIIRMPKDFPPFPQKLKFREPQREERICLVTTNFQTKSMSSMVSDTSCTFPSGDGIFWKHWIQTKDGQCGSPLVSTRDGFIVGIHSASNFTNTNNYFTSVPKNFMELLTNQEAQQWVSGWRLNADSVLWGGHKVFMVKPEEPFQPVKEATQL [S60G],0.0739,0.0486,,,0.0566,,0.0644,0.0705,,
MGESLFKGPRDYNPISSSICHLTNESDGHTTSLYGIGFGPFIITNKHLFRRNNGTLVVQSLHGVVKVKDTTTLQQHLVDGRDMIIIRMPKDFPPFPQKLKFREPQREERICLVTTNFQTKSMSSMVSDTSCTFPSGDGIFWKHWIQTKDGQCGSPLVSTRDGFIVGIHSASNFTNTNNYFTSVPKNFMELLTNQEAQQWVSGWRLNADSVLWGGHKVFMVKPEEPFQPVKEATQL [F65V],0.0607,,,,,,0.0694,,,
MGESLFKGPRDYNPISSSICHLTNESDGHTTSLYGIGFGPFIITNKHLFRRNNGTLVVQSLHGVFQVKDTTTLQQHLVDGRDMIIIRMPKDFPPFPQKLKFREPQREERICLVTTNFQTKSMSSMVSDTSCTFPSGDGIFWKHWIQTKDGQCGSPLVSTRDGFIVGIHSASNFTNTNNYFTSVPKNFMELLTNQEAQQWVSGWRLNADSVLWGGHKVFMVKPEEPFQPVKEATQL [K66Q],0.0353,,,,,,,,0.0678,0.0452
MGESLFKGPRDYNPISSSICHLTNESDGHTTSLYGIGFGPFIITNKHLFRRNNGTLVVQSLHGVFKVKDTTTLQMHLVDGRDMIIIRMPKDFPPFPQKLKFREPQREERICLVTTNFQTKSMSSMVSDTSCTFPSGDGIFWKHWIQTKDGQCGSPLVSTRDGFIVGIHSASNFTNTNNYFTSVPKNFMELLTNQEAQQWVSGWRLNADSVLWGGHKVFMVKPEEPFQPVKEATQL [Q75M],0.0622,0.0663,,,0.0551,0.0552,0.0418,0.0704,0.061,

# Same assay, conditions: temperature: 34 °C; time window: 0-4 h after rhamnose induction
Variant,area with substrate ENHYFQS,area with substrate ENIYFQS,area with substrate ENWYFQS,area with substrate ENFYFQS,area with substrate ENYYFQS,area with substrate ENMYFQS,area with substrate ENVYFQS
MGESLFKGPRDYNPISSSICHLTNESDGGTTSLYGIGFGPFIITNKHLFRRNNGTLVVQSLHGVFKVKDTTTLQQHLVDGRDMIIIRMPKDFPPFPQKLKFREPQREERICLVTTNFQTKSMSSMVSDTSCTFPSGDGIFWKHWIQTKDGQCGSPLVSTRDGFIVGIHSASNFTNTNNYFTSVPKNFMELLTNQEAQQWVSGWRLNADSVLWGGHKVFMVKPEEPFQPVKEATQL [H29G],0.07,0.107,,,,,
MGESLFKGPRDYNPISSSICHLTNESDGHTTSLYGIGFGPFIITNKHLFRRNNGTLVDQSLHGVFKVKDTTTLQQHLVDGRDMIIIRMPKDFPPFPQKLKFREPQREERICLVTTNFQTKSMSSMVSDTSCTFPSGDGIFWKHWIQTKDGQCGSPLVSTRDGFIVGIHSASNFTNTNNYFTSVPKNFMELLTNQEAQQWVSGWRLNADSVLWGGHKVFMVKPEEPFQPVKEATQL [V58D],,,0.0425,,,,
MGESLFKGPRDYNPISSSICHLTNESDGHTTSLYGIGFGPFIITNKHLFRRNNGTLVMQSLHGVFKVKDTTTLQQHLVDGRDMIIIRMPKDFPPFPQKLKFREPQREERICLVTTNFQTKSMSSMVSDTSCTFPSGDGIFWKHWIQTKDGQCGSPLVSTRDGFIVGIHSASNFTNTNNYFTSVPKNFMELLTNQEAQQWVSGWRLNADSVLWGGHKVFMVKPEEPFQPVKEATQL [V58M],,0.118,,0.0635,0.0717,,
MGESLFKGPRDYNPISSSICHLTNESDGHTTSLYGIGFGPFIITNKHLFRRNNGTLVSQSLHGVFKVKDTTTLQQHLVDGRDMIIIRMPKDFPPFPQKLKFREPQREERICLVTTNFQTKSMSSMVSDTSCTFPSGDGIFWKHWIQTKDGQCGSPLVSTRDGFIVGIHSASNFTNTNNYFTSVPKNFMELLTNQEAQQWVSGWRLNADSVLWGGHKVFMVKPEEPFQPVKEATQL [V58S],0.069,0.0326,0.0022,,0.0542,0.0674,0.0384
MGESLFKGPRDYNPISSSICHLTNESDGHTTSLYGIGFGPFIITNKHLFRRNNGTLVVQGLHGVFKVKDTTTLQQHLVDGRDMIIIRMPKDFPPFPQKLKFREPQREERICLVTTNFQTKSMSSMVSDTSCTFPSGDGIFWKHWIQTKDGQCGSPLVSTRDGFIVGIHSASNFTNTNNYFTSVPKNFMELLTNQEAQQWVSGWRLNADSVLWGGHKVFMVKPEEPFQPVKEATQL [S60G],,0.107,,,,,
MGESLFKGPRDYNPISSSICHLTNESDGHTTSLYGIGFGPFIITNKHLFRRNNGTLVVQSLHGVVKVKDTTTLQQHLVDGRDMIIIRMPKDFPPFPQKLKFREPQREERICLVTTNFQTKSMSSMVSDTSCTFPSGDGIFWKHWIQTKDGQCGSPLVSTRDGFIVGIHSASNFTNTNNYFTSVPKNFMELLTNQEAQQWVSGWRLNADSVLWGGHKVFMVKPEEPFQPVKEATQL [F65V],,,,,0.056,,
MGESLFKGPRDYNPISSSICHLTNESDGHTTSLYGIGFGPFIITNKHLFRRNNGTLVVQSLHGVFQVKDTTTLQQHLVDGRDMIIIRMPKDFPPFPQKLKFREPQREERICLVTTNFQTKSMSSMVSDTSCTFPSGDGIFWKHWIQTKDGQCGSPLVSTRDGFIVGIHSASNFTNTNNYFTSVPKNFMELLTNQEAQQWVSGWRLNADSVLWGGHKVFMVKPEEPFQPVKEATQL [K66Q],,0.113,0.0126,,,,
MGESLFKGPRDYNPISSSICHLTNESDGHTTSLYGIGFGPFIITNKHLFRRNNGTLVVQSLHGVFKVKDTTTLQMHLVDGRDMIIIRMPKDFPPFPQKLKFREPQREERICLVTTNFQTKSMSSMVSDTSCTFPSGDGIFWKHWIQTKDGQCGSPLVSTRDGFIVGIHSASNFTNTNNYFTSVPKNFMELLTNQEAQQWVSGWRLNADSVLWGGHKVFMVKPEEPFQPVKEATQL [Q75M],0.0579,,,0.0569,0.0563,0.0688,0.101
